Some of the results follow. The energies were worked out here from pooled read counts, against the library average; single values are noisy.
Target: T1, Pho4 (S. cerevisiae) (UniProt P07270)
T1 sequence: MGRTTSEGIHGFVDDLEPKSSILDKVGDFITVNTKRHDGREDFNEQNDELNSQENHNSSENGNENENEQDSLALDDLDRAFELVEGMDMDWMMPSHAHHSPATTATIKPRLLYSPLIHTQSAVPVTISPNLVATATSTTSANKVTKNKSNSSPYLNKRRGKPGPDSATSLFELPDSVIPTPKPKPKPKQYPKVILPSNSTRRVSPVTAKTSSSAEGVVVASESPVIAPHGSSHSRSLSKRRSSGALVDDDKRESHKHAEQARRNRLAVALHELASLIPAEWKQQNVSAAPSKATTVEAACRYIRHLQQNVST
Test: relative binding free energy (BET-seq); higher = weaker binding
Conditions: reference: library average

Row | Sequence | relative binding free energy [kcal/mol]
1 | TATGTCACGTGCGGTC | 0.12
2 | ATGTTCACGTGCATTT | 0.28
3 | TGTAACACGTGCTTGT | -0.11
4 | AAGGTCACGTGGGACG | -0.02
5 | GTCGGCACGTGTGGGC | -0.01
6 | AAGTGCACGTGTAGTA | 0.01
7 | GTTTTCACGTGGAAAG | 0.35
8 | AATCACACGTGTTGGG | 0.07
9 | AAAAGCACGTGAAGTG | 0.32
10 | ATATGCACGTGAGGTG | 0
11 | TGTGACACGTGTCCGG | -0.12
12 | GATGCCACGTGATGTG | 0.1
13 | TGCTGCACGTGCATGT | -0.03
14 | GAATGCACGTGGGGTC | -0.13
15 | TGGGACACGTGGTATT | -0.03
16 | CGGCTCACGTGGGTGA | 0.04
17 | TTTTTCACGTGTTTCC | 0.31
18 | TGGCCCACGTGTGGGG | -0.13
19 | TGGGACACGTGGTGTA | -0.1
20 | AGTAGCACGTGTGCGT | -0.07
21 | GGTATCACGTGATCAT | 0.4
22 | ACTTGCACGTGTAGGA | 0.01
23 | TTTAACACGTGATAAT | 0.34

Row | Sequence | relative binding free energy [kcal/mol]
24 | AAGCGCACGTGGCAGT | 0.01
25 | GGGGCCACGTGAGGAT | 0.33
26 | GGGTTCACGTGTGAAT | 0.41
27 | TGCTTCACGTGAGAAT | 0.48
28 | GTGAGCACGTGTTTGC | -0.02
29 | CTAAGCACGTGTTGAG | 0.04
30 | AAGTACACGTGTTGGA | 0.13
31 | AGTCTCACGTGGTTGA | 0.32
32 | TGTGTCACGTGTAGTT | 0.09
33 | GAGTGCACGTGTTTAT | -0.07
34 | AGGTGCACGTGCAGAA | 0.04
35 | ATGGCCACGTGGCGGG | -0.23
36 | GGTTGCACGTGTCGGG | 0.16
37 | AAGGTCACGTGTAGTT | 0.33
38 | TGTATCACGTGTCTTT | 0.17
39 | TGGTGCACGTGAATTT | 0.1
40 | AGTTGCACGTGGTACG | -0.05
41 | TGTATCACGTGAGTCG | 0.33
42 | TGCATCACGTGGATAG | 0.21
43 | TTTAGCACGTGAAGAG | 0.1
44 | AGGTTCACGTGGAGTG | 0.25
45 | GTAGGCACGTGACTTG | 0.15
46 | GGTGCCACGTGGAGCG | -0.1

Row | Sequence | relative binding free energy [kcal/mol]
47 | CTGTGCACGTGTTTCG | 0.07
48 | CAAATCACGTGTAGGG | 0.13
49 | TGTTGCACGTGCGTGG | -0.05
50 | CTAATCACGTGGGTGT | -0.16
51 | TTGGTCACGTGTCGGG | 0.16
52 | TAAGGCACGTGAGTAT | 0.21
53 | GTGAGCACGTGTGTCG | -0.02
54 | TGATACACGTGGAGTG | -0.03
55 | GGTTGCACGTGCGTAA | 0
56 | GACGTCACGTGTTAGG | 0.22
57 | ATAGACACGTGTTATT | -0.15
58 | GGAGGCACGTGAGGGC | 0.13
59 | GGGGTCACGTGATGCT | 0.21
60 | TCGCGCACGTGGAGTG | -0.16
61 | GAGGGCACGTGGAGAG | 0.06
62 | TTGTTCACGTGCGTTA | 0.17
63 | TCGGACACGTGGTGGC | 0.04
64 | GAGGTCACGTGGAGTT | 0.2
65 | CGGTTCACGTGTGCTT | 0.37
66 | ATGTACACGTGTTAAG | -0.07
67 | GTGGGCACGTGCGCAT | -0.15
68 | GATGTCACGTGCCGGT | 0.08
69 | GTTCTCACGTGCGTGG | 0.25

Row | Sequence | relative binding free energy [kcal/mol]
70 | CTAAACACGTGGTAGG | -0.01
71 | AGGGTCACGTGCTGTT | 0.07
72 | TTGGCCACGTGTGGTT | 0.1
73 | TGACGCACGTGTGGAT | 0.04
74 | TGATTCACGTGAGTAG | 0.38
75 | TAGTGCACGTGCACGT | 0.01
76 | TATTGCACGTGCTCGG | -0.17
77 | GTGGACACGTGGGTAC | -0.04
78 | GTAGGCACGTGGCTTT | -0.04
79 | AGGGTCACGTGACTGT | 0.3
80 | GGGTCCACGTGTCGGT | 0.11
81 | ATACACACGTGAGGGT | 0.15
82 | AGTGTCACGTGTCTGT | -0.12
83 | ACGTACACGTGTTTGT | 0.09
84 | ATGAGCACGTGGTTCA | -0.06
85 | TTCGACACGTGGGTGA | -0.09
86 | TAGCGCACGTGTGGAG | -0.05
87 | ACGGGCACGTGCTGGG | -0.15
88 | ATTGCCACGTGAGGGG | 0.13
89 | CTAGTCACGTGGGTTG | -0.04
90 | TGTGTCACGTGTAATA | 0.15
91 | CTAGTCACGTGTTAGT | 0.19
92 | AGTATCACGTGTTATA | 0.15

Row | Sequence | relative binding free energy [kcal/mol]
93 | TCGGACACGTGTTAGA | 0.25
94 | TTAATCACGTGTAAAA | 0.23
95 | TAAGGCACGTGCCGGG | -0.16
96 | GGGGCCACGTGGGCGG | -0.13
97 | CTGTCCACGTGGGGAG | -0.09
98 | AGTAGCACGTGTCGTG | -0.13
99 | CGCGGCACGTGAGTTG | 0.06
100 | CAAGTCACGTGAAGGT | 0.21
101 | CATGACACGTGTGGTT | 0.05
102 | GAGGTCACGTGGCTGT | 0.05
103 | TCTTGCACGTGGGAAT | -0.13
104 | ATTTTCACGTGCTGAG | 0.2
105 | TGACGCACGTGAGATG | 0.22
106 | GTTTACACGTGATGTG | 0.29
107 | AGGTCCACGTGGGGCG | -0.14
108 | TGCTGCACGTGAGGTA | 0.17
109 | TTGTTCACGTGCGAAG | 0.27
110 | TCATTCACGTGATGGA | 0.27
111 | TTGTGCACGTGAAGTG | 0.25
112 | GAAGTCACGTGTGGGC | 0.25
113 | TGCTTCACGTGTAGAG | 0.11
114 | ATGAGCACGTGGGAGG | -0.27
115 | TCCGGCACGTGGGATG | -0.17
